# Data published in patent US8592383B2, “Cycloalkyl-fused tetrahydroquinolines as CRTH2 receptor modulators” (Merck Sharp & Dohme Corp., priority 2011, dated 2013).
# Target: T1, hCRTH2 (Homo sapiens, UniProt Q9Y5Y4)
# T1 sequence (Q9Y5Y4 1-395): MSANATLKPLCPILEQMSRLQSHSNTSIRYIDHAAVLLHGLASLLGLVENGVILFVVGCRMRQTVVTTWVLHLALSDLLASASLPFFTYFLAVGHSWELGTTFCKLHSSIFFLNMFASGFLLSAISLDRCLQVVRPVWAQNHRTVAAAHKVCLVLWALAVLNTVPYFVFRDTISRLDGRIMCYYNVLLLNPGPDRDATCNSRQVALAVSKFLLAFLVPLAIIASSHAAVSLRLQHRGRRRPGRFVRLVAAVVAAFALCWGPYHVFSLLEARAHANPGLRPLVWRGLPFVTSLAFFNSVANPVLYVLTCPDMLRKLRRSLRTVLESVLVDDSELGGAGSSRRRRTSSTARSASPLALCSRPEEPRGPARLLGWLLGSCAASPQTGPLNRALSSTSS
# Test: biochemical
# Settings: Ki (nM), Table A; Radioligand Binding Assay A, [3H]PGD2, HEK-hCRTH2 membranes
row,Structure (SMILES),Ki [nM]
1,"C[C@H](NC(=O)N(C1CC1)C1c2ccccc2N(C(=O)c2ccc(OC(F)(F)F)cc2)C2CCCC21)C(=O)O (mixture of isomers) [35E, N-[[cyclopropyl[cis,cis-2,3,3a,4,9,9a-hexahydro-4-[4-(trifluoromethoxy)benzoyl]-1H-cyclopenta[b]quinolin-9-yl]amino]carbonyl]-l-alanine]",20.1 to 200
2,"C[C@@H](NC(=O)N(C1CC1)C1c2ccccc2N(C(=O)c2ccc(OC(F)(F)F)cc2)C2CCCC21)C(=O)O (mixture of isomers) [35F, N-[[cyclopropyl[cis,cis-2,3,3a,4,9,9a-hexahydro-4-[4-(trifluoromethoxy)benzoyl]-1H-cyclopenta[b]quinolin-9-yl]amino]carbonyl]-D-alanine]",201 to 7500
3,"O=C(O)CCNC(=O)N(C1CC1)C1c2ccccc2N(C(=O)c2ccc(OC(F)(F)F)cc2)C2CCCC21 (racemic) [35G, N-[[cyclopropyl[cis,cis-2,3,3a,4,9,9a-hexahydro-4-[4-(trifluoromethoxy)benzoyl]-1H-cyclopenta[b]quinolin-9-yl]amino]carbonyl]-beta-alanine]",201 to 7500
4,"O=C(O)CNC(=O)N(C1CC1)C1c2ccccc2N(C(=O)c2ccc(OC(F)(F)F)cc2)C2CCCC21 (racemic) [35K, N-[[cyclopropyl[cis,cis-2,3,3a,4,9,9a-hexahydro-4-[4-(trifluoromethoxy)benzoyl]-1H-cyclopenta[b]quinolin-9-yl]amino]carbonyl]glycine]",5.1 to 20
5,"O=C(O)CCC(=O)N(C1CC1)[C@@H]1c2ccccc2N(C(=O)c2ccc(-c3ncccn3)cc2)[C@@H]2CCC[C@@H]21 (racemic) [compound 18, 4-[Cyclopropyl[cis,cis-2,3,3a,4,9,9a-hexahydro-4-[4-(2-pyrimidinyl)benzoyl]-1H-cyclopenta[b]quinolin-9-yl]amino]-4-oxobutanoic acid]",20.1 to 200
6,"CC1(C)C[C@@H]2[C@H](C1)N(C(=O)OCc1ccccc1)c1ccccc1[C@@H]2N(C(=O)CCC(=O)O)C1CC1 (racemic) [compound 19, 4-(Phenylmethyl)cis,cis-9-[(3-carboxy-1-oxopropyl)cyclopropylamino]-1,2,3,3a,9,9a-hexahydro-2,2-dimethyl-4H-cyclopenta[b]quinoline-4-carboxylate]",201 to 7500
7,"O=C(O)COC(=O)N(C1CC1)[C@@H]1c2ccccc2N(c2nnc(-c3cccc(OC(F)(F)F)c3)o2)[C@@H]2CCC[C@@H]21 (racemic) [compound 38, [[[Cyclopropyl[cis,cis-2,3,3a,4,9,9a-hexahydro-4-[5-[3-(trifluoromethoxy)phenyl]-1,3,4-oxadiazol-2-yl]-1H-cyclopenta[b]quinolin-9-yl]amino]carbonyl]oxy]acetic acid]",20.1 to 200
8,"CCN(c1nc(C(=O)O)co1)[C@@H]1c2ccccc2N(C(=O)c2ccc(OC(F)(F)F)cc2)[C@@H]2CCC[C@H]12 (racemic) [compound 40, 2-[Ethyl[cis,cis-2,3,3a,4,9,9a-hexahydro-4-[4-(trifluoromethoxy)benzoyl]-1H-cyclopenta[b]quinolin-9-yl]amino]-4-oxazolecarboxylic acid]",20.1 to 200
9,"O=C(O)Cc1nnc(N(C2CC2)[C@@H]2c3ccccc3N(C(=O)c3ccc(OC(F)(F)F)cc3)[C@@H]3CCC[C@@H]32)o1 (racemic) [compound 41, 5-[Cyclopropyl[cis,cis-2,3,3a,4,9,9a-hexahydro-4-[4-(trifluoromethoxy)benzoyl]-1H-cyclopenta[b]quinolin-9-yl]amino]-1,3,4-oxadiazole-2-acetic acid]",201 to 7500
10,"O=C(c1ccc(OC(F)(F)F)cc1)N1c2ccccc2[C@@H](N(C(=O)CCc2nnn[nH]2)C2CC2)[C@H]2CCC[C@H]21 (racemic) [compound 42, N-Cyclopropyl-N-[cis,cis-2,3,3a,4,9,9a-hexahydro-4-[4-(trifluoromethoxy)benzoyl]-1H-cyclopenta[b]quinolin-9-yl]-2H-tetrazole-5-propanamide]",20.1 to 200
11,"O=C(O)CCCN(C1CC1)[C@@H]1c2ccccc2N(C(=O)c2ccc(OC(F)(F)F)cc2)[C@@H]2CCC[C@@H]21 (racemic) [compound 44, 4-[Cyclopropyl[cis,cis-2,3,3a,4,9,9a-hexahydro-4-[4-(trifluoromethoxy)benzoyl]-1H-cyclopenta[b]quinolin-9-yl]amino]butanoic acid]",1 to 5
12,"O=C(O)CCC(=O)N[C@@H]1c2ccccc2N(C(=O)c2ccc(OC(F)(F)F)cc2)[C@@H]2CCC[C@H]12 (racemic) [compound 45, 4-[[cis,cis-2,3,3a,4,9,9a-Hexahydro-4-[4-(trifluoromethoxy)benzoyl]-1H-cyclopenta[b]quinolin-9-yl]amino]-4-oxobutanoic acid]",20.1 to 200
13,"CC(=O)N(CCCC(=O)O)[C@@H]1c2ccccc2N(C(=O)c2ccc(OC(F)(F)F)cc2)[C@@H]2CCC[C@H]12 (racemic) [compound 47, 4-[Acetyl[cis,cis-2,3,3a,4,9,9a-hexahydro-4-[4-(trifluoromethoxy)benzoyl]-1H-cyclopenta[b]quinolin-9-yl]amino]butanoic acid]",201 to 7500
14,"CCN(C(=O)CCC(=O)O)C1c2ccccc2N(C(=O)OC(C)c2ccccc2)C2CCCC12 (racemic) [compound 74, 4-(1-phenylethyl) cis, cis-[(3-carboxy-1-oxopropyl)ethylamino]-1,2,3,3a,9,9a-hexahydro-4H-cyclopenta[b]quinoline-4-carboxylatc]",20.1 to 200
15,"CCN(C(=O)CCC(=O)O)C1c2ccccc2N(C(=O)C2CC2c2ccccc2)C2CCC12 (racemic) [compound 98, 4-(ethyl(cis, cis-3-(2-phenylcyclopropanecarbonyl)-1,2,2a,3,8,8a-hexahydrocyclobuta[b]quinolin-8-yl)amino)-4-oxobutanoic acid]",5.1 to 20
16,"CC(CNC1c2ccccc2N(C(=O)OCc2ccccc2)C2CCCC12)C(=O)O (racemic) [compound 103, 4-(phenylmethyl) cis, cis-[(2(RS)-carboxypropyl)amino]-1,2,3,3a,9,9a-hexahydro-4H-cyclopenta[b]quinoline-4-carboxylate]",201 to 7500
17,"CCN(C(=O)C[C@@H](C)C(=O)O)C1c2ccccc2N(C(=O)OCc2ccccc2)C2CCCC12 (mixture of isomers) [compound 105, 4-(phenylmethyl) cis,cis-9-[(3(R)-carboxy-1-oxobutyl)ethylamino]-1,2,3,3a,9,9a-hexahydro-4H-cyclopenta[b]quinoline-4-carboxylate]",201 to 7500

# The next lines start with the values.
row,Ki [nM],Structure (SMILES)
1,5.1 to 20,"O=C(O)COC(=O)N(C1CC1)C1c2ccccc2N(c2nnc(Cc3ccc(OC(F)(F)F)cc3)o2)C2CCCC21 (racemic) [38D, [[[cyclopropyl[cis,cis-2,3,3a,4,9,9a-hexahydro-4-[5-[[4-(trifluoromethoxy)phenyl]methyl]-1,3,4-oxadiazol-2-yl]-1H-cyclopenta[b]quinoline-9-yl]amino]carbonyl]oxy] acetic acid]"
2,20.1 to 200,"O=C(O)COC(=O)N(C1CC1)C1c2ccccc2N(c2nnc(Cc3ccc(F)cc3)o2)C2CCCC21 (racemic) [38E, [[[cyclopropyl[cis,cis-4-[5-[(4-fluorophenyl)methyl]-1,3,4-oxadiazol-2-yl]-2,3,3a,4,9,9a-hexahydro-1H-cyclopenta[b]quinoline-9-yl]amino]carbonyl]oxy]acetic acid]"
3,201 to 7500,"O=C(O)CCCNC1c2ccccc2N(C(=O)c2ccc(OC(F)(F)F)cc2)C2CCCC12 (racemic) [44B, 4-[[cis,cis-2,3,3a,4,9,9a-hexahydro-4-[4-(trifluoromethoxy)benzoyl]-1H-cyclopenta[b]quinolin-9-yl]amino]butanoic acid]"
4,20.1 to 200,"O=C(O)C1CC1CN(C1CC1)C1c2ccccc2N(C(=O)c2ccc(OC(F)(F)F)cc2)C2CCCC21 (racemic) [44C, trans-2-[[cyclopropyl[cis,cis-2,3,3a,4,9,9a-hexahydro-4-[4-(trifluoromethoxy)benzoyl]-1H-cyclopenta[b]quinolin-9-yl]amino]methyl]cyclopropane-carboxylic acid]"
5,5.1 to 20,"O=C(O)CCCN(Cc1ccccc1)C1c2ccccc2N(C(=O)c2ccc(OC(F)(F)F)cc2)C2CCCC12 (racemic) [44E, 4-[[cis,cis-2,3,3a,4,9,9a-hexahydro-4-[4-(trifluoromethoxy)benzoyl]-1H-cyclopenta[b]quinolin-9-yl](phenylmethyl)amino] butanoic acid]"
6,20.1 to 200,"O=C(O)CCCN(CC1CC1)C1c2ccccc2N(C(=O)c2ccc(OC(F)(F)F)cc2)C2CCCC12 (racemic) [44F, 4-[(cyclopropylmethyl)[cis,cis-2,3,3a,4,9,9a-hexahydro-4-[4-(trifluoromethoxy)benzoyl]-1H-cyclopenta[b]quinolin-9-yl]amino]butanoic acid]"
7,5.1 to 20,"O=C(O)CCCN(C(=O)c1ccccc1)C1c2ccccc2N(C(=O)c2ccc(OC(F)(F)F)cc2)C2CCCC12 (racemic) [47D, 4-[benzoyl[cis,cis-2,3,3a,4,9,9a-hexahydro-4-[4-(trifluoromethoxy)benzoyl]-1H-cyclopenta[b]quinolin-9-yl]amino]butanoic acid]"
8,201 to 7500,"Cc1ccc(C(=O)N(CCCC(=O)O)C2c3ccccc3N(C(=O)c3ccc(OC(F)(F)F)cc3)C3CCCC23)cc1 (racemic) [47F, 4-[[cis,cis-2,3,3a,4,9,9a-hexahydro-4-[4-(trifluoromethoxy)benzoyl]-1H-cyclopenta[b]quinolin-9-yl](4-methylbenzoyl)amino]butanoic acid]"
9,201 to 7500,"CC(C)C(=O)N(CCCC(=O)O)C1c2ccccc2N(C(=O)c2ccc(OC(F)(F)F)cc2)C2CCCC12 (racemic) [47G, 4-[[cis,cis-2,3,3a,4,9,9a-hexahydro-4-[4-(trifluoromethoxy)benzoyl]-1H-cyclopenta[b]quinolin-9-yl](2-methyl-1-oxopropyl)amino]butanoic acid]"
